This note sets out measurements from paper PMC12136788.

The other results are listed elsewhere or left out.

The chains are these.
T1: UNK ZnF1-3 (human, UniProt Q9C0B0 31-174)
T1 sequence: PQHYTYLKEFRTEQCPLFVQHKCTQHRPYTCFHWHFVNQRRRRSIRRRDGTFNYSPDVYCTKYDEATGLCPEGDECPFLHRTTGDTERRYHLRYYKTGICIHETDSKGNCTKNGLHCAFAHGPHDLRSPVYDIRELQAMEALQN

B1: chr13:100193591:100193592:-_ENSMUSG00000052727_ENSMUST00000064762|mus_hu|FALSE|FALSE (ssRNA)
RNA: GGGAGUUCUACAGUCCGACGAUCUUUAAACCCUCAUCAUAGUUAGCAGUGCAAAACAUAGACUUAUCAGACAAAAAUCAACUAAAAUGUUAAUUUUGAAAUAAAUAACUAACAUAGAAAAUAAAAUGAGGUCAUUGUUCUCUACAACAGAGGAUUGAGCAUCA
B2: chr1:182352875:182352876:-_ENSG00000135821_ENST00000339526|hu_mus|motif|central (ssRNA)
RNA: GGGAGUUCUACAGUCCGACGAUCAUCCACACAUCCAUAUAUAUAUAACUUUUUUGUUUUUAACAUUUAAAUAUAAAAAUACGGCUCUGCUUUGUGUUAUGAACGGAGGACCAAGAAAUGCCAACUUUUUUCUUCCUUCACAGUCAACAGAGGAUUGAGCAUCA
B3: chr19:8913615:8913616:-_ENSMUSG00000071658_ENSMUST00000096259|mus_hu|mus_mus_mus_hu_False|18_98 (ssRNA)
RNA: GGGAGUUCUACAGUCCGACGAUCAGGGUACCAAAACACCCUGCCUCAAAUGGGUGCCCCACCCAGUAGGGAGUUGCAGCUGAAAGUAUCUGAUGCAGAAGCAGUGACUAUACGAAAGGUCACUAGAGGGGAGGGCCAGGCCAGCAACAGAGGAUUGAGCAUCA
B4: chr11:20585787:20585788:-_ENSMUSG00000049659_ENSMUST00000146722|mus_hu|FALSE|FALSE (ssRNA)
RNA: GGGAGUUCUACAGUCCGACGAUCUUUUUUUUAUUUCAAAAGUUUUGUAAGAAGGACACCACCAGUGUAUUUCACAAAGACAUAAAUGUAUACACCCCAGCAACACAAAAAGAAUAAAUCUUCAAAAAUGUUUACCCCCGAUUACAACAGAGGAUUGAGCAUCA
B5: chr16:94690093:94690094:+_ENSMUSG00000040785_ENSMUST00000117648|mus_hu|mus_mus_mus_hu_True|68_88 (ssRNA)
RNA: GGGAGUUCUACAGUCCGACGAUCGGGCUGGGAUGACGGACACACAGAUCUUCCCAGAGGGGGAAAAAAAAAUAGCCGAUACUAAUUAAAAAGUGUUAAUGAUUUUUGAAAAUCAGAUUACAUCUAUAAAAGAUGAAAAGCAAACAACAGAGGAUUGAGCAUCA
B6: 35146396_35147158_940_CDS_ENSMUSG00000029104_ENSMUST00000080036|mouse|control|control (ssRNA)
RNA: GGGAGUUCUACAGUCCGACGAUCCAGCAGACCUAGGAGGACAUUAAGGAGCCAGUUGUAGAAGUACUGUGUCCUCCUAGAAUGUUGGCAGAUGCUCACGGCUGAGCCGGCUGCUGUCCGCCGCACGGUGGGAGAGCUUGACUUCAACAGAGGAUUGAGCAUCA
B7: chr17:65930154:65930155:-_ENSMUSG00000024091_ENSMUST00000024897|mus_hu|motif|central (ssRNA)
RNA: GGGAGUUCUACAGUCCGACGAUCGGUGACAUUAUCUCUGAAGGAUGCAGUUGAGGUUGAUCCAGGUUUAUCCGAAUGUGCGGCCUUUCUGAGCCUUAAACCUUCAUCUCUCAGGUGCCGAUUUUCUUCUGAUAGCUUCAUCAUCAACAGAGGAUUGAGCAUCA
B8: chr19:47610742:47610743:-_ENSMUSG00000042694_ENSMUST00000049369|mus_hu|motif|central (ssRNA)
RNA: GGGAGUUCUACAGUCCGACGAUCUGGCACCUGGCGGGACUCCUUCAUGUCCAGGAUAUCCCUGAUGUAGAGUUUUGCAAAGGCGGGAAACACAGGAUCCAAACCCCACAAGAGGGAAGGGGUCUCCUCUUCACACCGGCUGGACAACAGAGGAUUGAGCAUCA
B9: chr6:40426449:40426450:+_ENSMUSG00000029911_ENSMUST00000121360|perfect_dup|FALSE|FALSE (ssRNA)
RNA: GGGAGUUCUACAGUCCGACGAUCGACAUCACCCAGUUGGUAAACUUCACUAUCCCCUGAUCGCCACAUCUCAUUAGUUGCUAGAGAAAAUAUUGUGACUGGAUUUUUUCCUUCCACCUGUCUCAAGACAGGGUCCUGACCCACCAACAGAGGAUUGAGCAUCA
B10: 44635006_44636950_5628_CDS_ENSMUSG00000002028_ENSMUST00000002095|mouse|control|control (ssRNA)
RNA: GGGAGUUCUACAGUCCGACGAUCCUCAUUUUGGCCAAUGUACAGCAAACGGCCAGCAUCAUUAGCACUGUCAUCGCCGUACAUCAGACACAGUGCACACUGUCGGUUGUCAUCGAUGCCUGGGGGUGGAUUCAGCUCUGGACUCAACAGAGGAUUGAGCAUCA
B11: chr22:19452774:19452775:-_ENSG00000070010_ENST00000399523|hu_hu|hu_hu_hu_mus_False|68_98 (ssRNA)
RNA: GGGAGUUCUACAGUCCGACGAUCCUUCUCAUUGUAGUUGAUGGCAAUCACAUCUCCAGUCGUCAGACAGGCAAAGUUUCUCAAUGCAUUUUCUAAUACCGCUUUAGGGUUGGUAAUAUCCAGGAAGUCUGGGCUCUGAGGCUGCAACAGAGGAUUGAGCAUCA
B12: chr18:9122563:9122564:+_ENSG00000178127_ENST00000318388|hu_mus|motif|central (ssRNA)
RNA: GGGAGUUCUACAGUCCGACGAUCGACCUGGAUAUGGUACUUCCCAACUGGCUUUCGAUUAUACAUUGUAUAAAAAGUUGCGGCUUCAUAUACUCUCAUUGGAGGUACUUGUAAAACUUCAGCCACCUUGUUCAUAGCGGAGAUCAACAGAGGAUUGAGCAUCA
B13: chr7:99593754:99593755:+_ENSMUSG00000052572_ENSMUST00000098308|mus_mus|motif|central (ssRNA)
RNA: GGGAGUUCUACAGUCCGACGAUCCUUUAGUGCCUUCUUUCAGCUUAUAAAUGGCAAAAUAGACAAUUGACAGCCAUAAAGCGGGGCCAGGUGGAAUCUCCUCCUCUCUAAGGUUAGUCCUCCACACAGGACACACUUGUCUUUCAACAGAGGAUUGAGCAUCA
B14: chr4:144460044:144460045:+_ENSG00000153147_ENST00000283131|hu_mus|hu_hu_hu_mus_False|68_78 (ssRNA)
RNA: GGGAGUUCUACAGUCCGACGAUCACGGUCCAUAGCCUGAAGAUCAACUUGCGGAUUCCAAUCAGAAUCAUACAAAAUGACUACAUCAGCAGUUGCAAGAUUGAUGCCCAGACCACCAGCACGUGUGCUUAGCAUAAAUACAAACAACAGAGGAUUGAGCAUCA
B15: chr5:176562935:176562936:+_ENSG00000165671_ENST00000439151|hu_mus|motif|central (ssRNA)
RNA: GGGAGUUCUACAGUCCGACGAUCGGGACUGGAGUCUGGAUCAUCCUGAAAAGAUAAAUUUAUUGAGUUAAAUUGCUCUUCGGCGGUAACGUUCGUGUCUCCUAGUGAGGUGGGGGCUGGGAGGAGGGCUGUCUUUUCAUUGCUCAACAGAGGAUUGAGCAUCA
B16: chrX:98862621:98862622:+_ENSMUSG00000034160_ENSMUST00000044475|mus_hu|mus_mus_mus_hu_False|8_38 (ssRNA)
RNA: GGGAGUUCUACAGUCCGACGAUCCUGCAUCUCCUUUAGAGUGUUUCCCAUAUUAGAGUAGGCAUCAGCAAAGGUAGGACUGAUUCGAAUAGCCUCCUUAUAGUGCAUCAGAGCUUCCUGCAGUUUUCCCUGCUGUUGCAGUACCAACAGAGGAUUGAGCAUCA
B17: chr20:57485041:57485042:+_ENSG00000087460_ENST00000306090|hu_hu|FALSE|FALSE (ssRNA)
RNA: GGGAGUUCUACAGUCCGACGAUCGUAGUCCUCAAUCUUCGAUUUCCCAGCAAGGACUUUCUCAGCGAGCAGAUCUUGCUUGUUGAGGAACAGGAUCACAGAGAUGGUGCGCAGCCAUCUGUUGUUCCAGAUGCUCUUGAAGAGCAACAGAGGAUUGAGCAUCA
B18: chr13:58910217:58910218:+_ENSMUSG00000055254_ENSMUST00000079828|mus_hu|FALSE|FALSE (ssRNA)
RNA: GGGAGUUCUACAGUCCGACGAUCACUGUUAGGCUCCAAUCUCGGAAAUGCCACGAUGCCAGGAGAAGGGUCGCUGCACCAGAUCCGAGAGGCACUGCAUUUGCAGGACGUGGGACAGGCGAAAGCGGCCCUCCAGAAGCCCACCAACAGAGGAUUGAGCAUCA
B19: chr6:83912004:83912005:+_ENSMUSG00000030016_ENSMUST00000032088|mus_hu|FALSE|FALSE (ssRNA)
RNA: GGGAGUUCUACAGUCCGACGAUCUAAGUCAUAAACUUCUUCUACAGAAUAUCCUUUAUUAGGCAAAUUAGAGACAAGCAUCACACACAUUUCUUCUGUUUCCUUGUUAAGUGGUUCAUUCUCUGUGGCCUCCAAAGCAGCAUCCAACAGAGGAUUGAGCAUCA
B20: chr8:110352747:110352748:+_ENSG00000120533_ENST00000521662|hu_mus|motif|central (ssRNA)
RNA: GGGAGUUCUACAGUCCGACGAUCCAGGGCUCUGCCUUUUGGAGUGAUUUCAGCCACCAAGUCAUCAACAGUAACGUGUUCGGGUCCUUUUUCUUUAAUUACCUCUUUACAGUGUGCCUUUAGCUGAUCCUUCCAGCCGCACUCCAACAGAGGAUUGAGCAUCA
B21: chr11:53094105:53094106:-_ENSMUSG00000020361_ENSMUST00000020630|mus_hu|FALSE|FALSE (ssRNA)
RNA: GGGAGUUCUACAGUCCGACGAUCCAAUUUCUUGAGUUUCUCACACUCCUGAGAGAGUCGUAAUAAUGCACGGAUUUUGGACUUAAUGUCUAGCUUGUAUUUCUUCCCAAAUUCUUCACAGAAGUGAUUUACUAACACUUCAUCCAACAGAGGAUUGAGCAUCA
B22: chr10:98281081:98281082:-_ENSG00000077147_ENST00000371142|hu_hu|motif|central (ssRNA)
RNA: GGGAGUUCUACAGUCCGACGAUCAAGAAAAAAGUACUCUGUAGUCGAUCUGUACAUCCAAAUGCAUUUGGGAAUCGGCACCGGCGUUACAUUAUUUAAUGUUAUAUACAUUUAUUACCCACCCCCCUUGUUUUUAAUAAUUUCCAACAGAGGAUUGAGCAUCA

The target in this test is T1, UNK ZnF1-3. Description: nsRBNS (natural sequence RNA bind-n-seq); RBNS binding buffer (assumed for nsRBNS): 25 mM Tris pH 7.5, 150 mM KCl, 3 mM MgCl2, 0.01% Triton X-100, 500 ug/ml BSA, 20 U/ml SUPERase-In, 4 C; UNK is unkempt and MSI1 is Musashi-1; names of the RNAs are library labels; protein concentration not given here; high values mean tight binding.
Molecule B1 came in with a binding signal of 1.73 enrichment R.
Turning to B2, the binding signal turned out to be 2.07 enrichment R.
Turning to B3, the binding signal worked out at 1.33 enrichment R.
The result for B4 reads 1.87 enrichment R; that for B5, 2.59 enrichment R.
For the molecule B6, the binding signal turned out to be 0.515 enrichment R.
As to B7, the binding signal was found to be 0.429 enrichment R.
On to B8, for which the binding signal worked out at 0.811 enrichment R.
With B9, the binding signal turned out to be 1.13 enrichment R.
B10 came in with a binding signal of 0.448 enrichment R.
The value for B11 was 1.03 enrichment R; that for B12 was 0.954 enrichment R.
B13 registered a binding signal of 1.16 enrichment R.
With B14, the binding signal worked out at 1.35 enrichment R.
B15 came in with a binding signal of 0.991 enrichment R.
The result for B16 reads 1.25 enrichment R.
In the case of B17, the binding signal is 0.382 enrichment R.
B18 came in with a binding signal of 0.732 enrichment R.
In the case of B19, the binding signal is 1.7 enrichment R.
B20: the binding signal was determined as 0.781 enrichment R.
Molecule B21 displayed a binding signal of 0.496 enrichment R.
Regarding B22, the binding signal is 1.85 enrichment R.
